Measured values reported in patent publication US20250230255A1 (BIOTHEUS, published 2025).

Key:
human CD39 on cells [1] = target: T1, human CD39 on cells (human, UniProt P49961 1-510); experiment: cell-based or functional assay
T1 sequence: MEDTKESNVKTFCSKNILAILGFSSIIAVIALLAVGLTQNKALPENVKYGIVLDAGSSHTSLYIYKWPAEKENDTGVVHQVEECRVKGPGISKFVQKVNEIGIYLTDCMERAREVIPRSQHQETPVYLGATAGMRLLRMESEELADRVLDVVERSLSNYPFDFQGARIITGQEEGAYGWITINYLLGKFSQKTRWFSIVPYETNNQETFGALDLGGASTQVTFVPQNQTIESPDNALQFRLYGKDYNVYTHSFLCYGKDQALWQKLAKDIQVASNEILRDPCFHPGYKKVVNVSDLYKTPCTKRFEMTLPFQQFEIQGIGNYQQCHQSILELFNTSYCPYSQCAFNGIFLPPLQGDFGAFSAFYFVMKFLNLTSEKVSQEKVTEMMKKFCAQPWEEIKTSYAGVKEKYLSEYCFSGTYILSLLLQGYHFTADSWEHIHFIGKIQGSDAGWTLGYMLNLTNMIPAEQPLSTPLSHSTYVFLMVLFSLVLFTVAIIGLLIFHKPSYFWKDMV

human CD39 on cells [2] = target: T1, human CD39 on cells; experiment: cell-based or functional assay; remark: listed apart in the source
cynomolgus CD39 on cells = target: T2, cynomolgus CD39 on cells (cynomolgus, UniProt P49961 6-510 (human entry)); experiment: flow cytometry on CHO-cyCD39 cells, MFI titration
T2 construct: also called cyCD39; CHO-cyCD39 cells
T2 chain: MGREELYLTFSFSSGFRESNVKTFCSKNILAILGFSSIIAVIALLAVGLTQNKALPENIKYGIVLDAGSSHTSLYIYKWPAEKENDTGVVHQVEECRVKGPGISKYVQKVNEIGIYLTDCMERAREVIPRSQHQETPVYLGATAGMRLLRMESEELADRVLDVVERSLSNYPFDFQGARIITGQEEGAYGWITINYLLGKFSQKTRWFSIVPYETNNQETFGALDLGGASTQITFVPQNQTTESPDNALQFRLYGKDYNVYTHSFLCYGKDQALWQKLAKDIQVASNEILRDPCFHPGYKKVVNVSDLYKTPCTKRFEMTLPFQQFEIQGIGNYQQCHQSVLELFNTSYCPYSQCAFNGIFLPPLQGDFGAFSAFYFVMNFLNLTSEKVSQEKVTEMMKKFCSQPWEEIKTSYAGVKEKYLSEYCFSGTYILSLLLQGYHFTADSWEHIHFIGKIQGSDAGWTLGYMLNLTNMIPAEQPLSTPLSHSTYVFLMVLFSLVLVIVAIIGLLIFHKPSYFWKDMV

[3] = target: T3, human CD39 (recombinant protein in solution) (human, UniProt P49961 38-478, limits assumed); experiment: cell-based or functional assay
T3 sequence: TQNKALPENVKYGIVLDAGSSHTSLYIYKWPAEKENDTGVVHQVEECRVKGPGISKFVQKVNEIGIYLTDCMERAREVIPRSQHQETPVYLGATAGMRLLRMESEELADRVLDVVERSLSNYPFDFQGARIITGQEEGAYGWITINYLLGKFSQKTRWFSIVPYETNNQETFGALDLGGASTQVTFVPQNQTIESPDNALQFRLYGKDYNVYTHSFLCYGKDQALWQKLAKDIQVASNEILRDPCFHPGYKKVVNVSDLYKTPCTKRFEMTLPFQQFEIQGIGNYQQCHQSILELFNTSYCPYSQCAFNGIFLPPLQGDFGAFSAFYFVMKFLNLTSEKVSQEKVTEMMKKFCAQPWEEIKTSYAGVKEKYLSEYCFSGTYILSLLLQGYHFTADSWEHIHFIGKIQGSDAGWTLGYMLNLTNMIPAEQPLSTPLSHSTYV

[4] = target: T3, human CD39 (recombinant protein in …); experiment: BLI (ForteBio), method of Example 3, human CD39 in solution
Procedure: (§1) ForteBio affinity test was conducted according to the existing methods (Estep, P et al., High throughput solution based measurement of antibody-antigen affinity and affinity binding. MAbs, 2013.5 (2): p. 270-8). In short, the sensor is balanced offline in the analysis buffer for 30 min, and then tested online for 60 s to establish baseline. After that, the AHQ sensor is online loaded with the above-obtained purified antibody, and put into 100 nM human CD39 (SEQ ID NO: 28) for 5 min, and then transferred the sensor to PBS for dissociation for 5 min. A 1:1 binding model is used for the dynamic analysis.
The humanized sequences are subjected to the humanized antibody vector construction, expression and purification according to the method described in Example 2. […] The purified humanized antibodies were subjected to the affinity test at protein level according to the method described in Example 3.

human CD39 on cells [5] = target: T1, human CD39 on cells; experiment: flow cytometry on CHO-hCD39 cells, MFI titration
human CD39 on cells [6] = target: T1, human CD39 on cells; experiment: cell-based or functional assay; remark: listed apart in the source
[7] = target: T3, human CD39 (recombinant protein in …); experiment: cell-based or functional assay; remark: listed apart in the source
human CD39 on cells [8] = target: T1, human CD39 on cells; experiment: cell-based or functional assay; remark: listed apart in the source
[9] = target: T3, human CD39 (recombinant protein in …); experiment: BLI (ForteBio), method of Example 3, human CD39 in solution; remark: listed apart in the source
Procedure: as §1

| EC50 of blocking CD39 enzyme activity of human CD39 overexpression cells (human CD39 on cells [1]) | EC50 of blocking CD39 enzyme activity in PBMC system (human CD39 on cells [2]) | EC50 (cynomolgus CD39 on cells) | EC50 of blocking enzyme activity of soluble human CD39 [3] | Kd [4] | koff [4] | kon [4] | EC50 (human CD39 on cells [5]) | EC50 of blocking CD39 enzyme activity in PBMC system (human CD39 on cells [6]) | EC50 of blocking enzyme activity of soluble human CD39 [7] | EC50 of blocking CD39 enzyme activity of human CD39 overexpression cells (human CD39 on cells [8]) | EC50 of blocking CD39 enzyme activity in PBMC system (1:1 mixture) (human CD39 on cells [6]) | EC50 of blocking enzyme activity of soluble human CD39 (1:1 mixture) [7] | Kd [9] | koff [9] | kon [9] | Binder |
| --- | --- | --- | --- | --- | --- | --- | --- | --- | --- | --- | --- | --- | --- | --- | --- | --- |
| 1.14 nM | 6.76 nM | 2.53 nM | 19.5 nM | 7.6 nM | 0.00198 s⁻¹ | 261000 M⁻¹ s⁻¹ | 4.98 nM | – | – | – | – | – | – | – | – | HZ-R-Ye-19(1)-037-2 (Fc fusion) EVQLLESGGGLVQPGGSLRLSCAVSRGTFSEYSMSWFRQAPGQERDFVTAISGFGHITHYADSVKGRFTISRDNSKNTVYLQMNSLRAEDTAVYYCAAAWQTSPRRMMQMAGSITWGQGTQVTVSS[human IgG1 Fc with changes cut from this listing] |
| 0.659 nM | 2.15 nM | 3.38 nM | 18.1 nM | 7.7 nM | 0.00195 s⁻¹ | 253000 M⁻¹ s⁻¹ | 4.75 nM | 0.818 nM | 12.6 nM | 3.15 nM | – | – | – | – | – | HZ-R-Ye-19(1)-037-3 (Fc fusion) EVQLLESGGGLVQPGGSLRLSCAVSRGTFSEYSMSWFRQAPGKEREFVTAISGFGHITHYADSVKGRFTISRDNSKNTVYLQMNSLRAEDTAVYYCAAAWQTSPRRMMQMAGSITWGQGTQVTVSS[human IgG1 Fc with changes cut from this listing] |
| 1.51 nM | 3.97 nM | 4.82 nM | 19.4 nM | 8.6 nM | 0.00202 s⁻¹ | 234000 M⁻¹ s⁻¹ | 2.2 nM | – | – | – | – | – | – | – | – | HZ-R-Ye-19(1)-037-4 (Fc fusion) EVQLLESGGGLVQPGGSLRLSCAVSRGTFSEYSMSWFRQAPGKGLEFVTAISGFGHITHYADSVKGRFTISRDNSKNTVYLQMNSLRAEDTAVYYCAAAWQTSPRRMMQMAGSITWGQGTQVTVSS[human IgG1 Fc with changes cut from this listing] |
| 0.606 nM | – | 2.23 nM | 20.6 nM | 2.5 nM | 0.000842 s⁻¹ | 334000 M⁻¹ s⁻¹ | 3.77 nM | – | – | – | – | – | – | – | – | HZ-R-Ye-19(1)-046-3 (Fc fusion) EVQLLESGGGLVQPGGSLRLSCAASGDIFSINYMSWYRQAPGKERELVAAITGRGNTNYADSVKGRFTISRDNSKNTVYLQMNSLRAEDTAVYYCNAWDYSDYDEGPLREYDYWGQGTQVTVSS[human IgG1 Fc with changes cut from this listing] |
| 0.968 nM | 1.57 nM | 3.27 nM | 17.2 nM | 0.43 nM | 0.000153 s⁻¹ | 355000 M⁻¹ s⁻¹ | 2.73 nM | – | – | – | – | – | – | – | – | HZ-R-Ye-19(1)-046-1 (Fc fusion) EVQLLESGGGLVQPGRSLRLSCAASGDIFSINYMGWYRQAPGNERELVAAITGRGNTNYADSVKGRFTISRDNSKNTVYLQMNSLKPEDTAVYYCNAWDYSDYDEGPLREYDYWGQGTQVTVSS[human IgG1 Fc with changes cut from this listing] |
| 0.549 nM | 0.0288 nM | 3.98 nM | 19.7 nM | 3.4 nM | 0.000829 s⁻¹ | 247000 M⁻¹ s⁻¹ | 1.55 nM | 0.565 nM | 12.4 nM | 1.01 nM | – | – | – | – | – | HZ-R-Ye-19(1)-046-2 (Fc fusion) EVQLLESGGGLVQPGGSLRLSCAASGDIFSINYMSWYRQAPGNERELVAAITGRGNTNYADSVKGRFTISRDNSKNTVYLQMNSLRAEDTAVYYCNAWDYSDADEGPLREYDYWGQGTQVTVSS[human IgG1 Fc with changes cut from this listing] |
| 0.982 nM | 0.897 nM | 2.41 nM | 22 nM | 3.4 nM | 0.000956 s⁻¹ | 278000 M⁻¹ s⁻¹ | 2.51 nM | – | – | – | – | – | – | – | – | HZ-R-Ye-19(1)-046-4 (Fc fusion) EVQLLESGGGLVQPGGSLRLSCAASGDIFSINYMSWYRQAPGKGLELVAAITGRGNTNYADSVKGRFTISRDNSKNTVYLQMNSLRAEDTAVYYCNAWDYSDYDEGPLREYDYWGQGTQVTVSS[human IgG1 Fc with changes cut from this listing] |
| – | – | – | – | – | – | – | – | – | – | – | 0.408 nM | 5.05 nM | – | – | – | HZ-R-Ye-19(1)-037-3 + HZ-R-Ye-19(1)-046-2 (other) chain 1: EVQLLESGGGLVQPGGSLRLSCAVSRGTFSEYSMSWFRQAPGKEREFVTAISGFGHITHYADSVKGRFTISRDNSKNTVYLQMNSLRAEDTAVYYCAAAWQTSPRRMMQMAGSITWGQGTQVTVSS[human IgG1 Fc with changes cut from this listing] chain 2: EVQLLESGGGLVQPGGSLRLSCAASGDIFSINYMSWYRQAPGNERELVAAITGRGNTNYADSVKGRFTISRDNSKNTVYLQMNSLRAEDTAVYYCNAWDYSDADEGPLREYDYWGQGTQVTVSS[human IgG1 Fc with changes cut from this listing] |
| – | – | – | – | – | – | – | – | – | – | – | – | – | 1.6 nM | 0.000211 s⁻¹ | 130000 M⁻¹ s⁻¹ | 46-37-Fc (bispecific antibody, also called bi-epitopic anti-CD39 antibody with N-terminal based structure) EVQLLESGGGLVQPGGSLRLSCAASGDIFSINYMSWYRQAPGNERELVAAITGRGNTNYADSVKGRFTISRDNSKNTVYLQMNSLRAEDTAVYYCNAWDYSDADEGPLREYDYWGQGTQVTVSSGGGGAGGGGAGGGGAGGGGAEVQLLESGGGLVQPGGSLRLSCAVSRGTFSEYSMSWFRQAPGKEREFVTAISGFGHITHYADSVKGRFTISRDNSKNTVYLQMNSLRAEDTAVYYCAAAWQTSPRRMMQMAGSITWGQGTQVTVSS[human IgG1 Fc with changes cut from this listing] |

Where two headings read alike, the source gives them in different places.
